In the supplement of paper PMC8728848:
This is one part of the list.

Experiments:
Assay in all cases: glycan array binding signal (z-score within array); higher = stronger binding
Settings in all cases: glycan notation: IUPAC condensed, linker removed
[1] = target: Fuc(a1-2)Gal(b1-4)GlcNAc(b1-3)Gal(b1-4)GlcNAc(b1-2)Man(a1-3)[Fuc(a1-2)Gal(b1-4)GlcNAc(b1-3)Gal(b1-4)GlcNAc(b1-2)Man(a1-6)]Man(b1-4)GlcNAc(b1-4)GlcNAc
Method in brief: (§1)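 Arrays were curated from the Consortium for Functional Glycomics database, 3228 in total, and kept only where the protein sequence was available. Binding is expressed as a within-array Z-score. This score was averaged across arrays of the same protein sequence at different concentrations or buffers and across linkers, and negative values can be read as non-binding.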

[2] = target: Fuc(a1-2)Gal(b1-4)GlcNAc(b1-3)Gal(b1-4)GlcNAc(b1-3)Gal(b1-4)GlcNAc
Method in brief: as §1

[3] = target: Fuc(a1-2)Gal(b1-4)GlcNAc(b1-3)GalNAc
Method in brief: as §1

[4] = target: Fuc(a1-2)Gal(b1-4)GlcNAc(b1-3)[Fuc(a1-2)Gal(b1-4)GlcNAc(b1-6)]GalNAc
Method in brief: as §1

[5] = target: Fuc(a1-2)Gal(b1-4)GlcNAc(b1-3)[Fuc(a1-3)[Gal(b1-4)]GlcNAc(b1-6)]Gal(b1-4)Glc
Method in brief: as §1

[6] = target: Fuc(a1-2)Gal(b1-4)GlcNAc(b1-6)GalNAc
Method in brief: as §1

[7] = target: Fuc(a1-2)Gal(b1-4)GlcNAc6S
Method in brief: as §1

[8] = target: Fuc(a1-2)Gal(b1-4)[Fuc(a1-3)]GlcNAc
Method in brief: as §1

[9] = target: Fuc(a1-2)Gal(b1-4)[Fuc(a1-3)]GlcNAc(b1-2)Man(a1-3)[Fuc(a1-2)Gal(b1-4)[Fuc(a1-3)]GlcNAc(b1-2)Man(a1-6)]Man(b1-4)GlcNAc(b1-4)[Fuc(a1-6)]GlcNAc
Method in brief: as §1

[10] = target: Fuc(a1-2)Gal(b1-4)[Fuc(a1-3)]GlcNAc(b1-2)[Fuc(a1-2)Gal(b1-4)[Fuc(a1-3)]GlcNAc(b1-4)]Man(a1-3)[Fuc(a1-2)Gal(b1-4)[Fuc(a1-3)]GlcNAc(b1-2)Man(a1-6)]Man(b1-4)GlcNAc(b1-4)GlcNAc
Method in brief: as §1

[11] = target: Fuc(a1-2)Gal(b1-4)[Fuc(a1-3)]GlcNAc(b1-3)Gal(b1-4)[Fuc(a1-3)]GlcNAc
Method in brief: as §1

[12] = target: Fuc(a1-2)Gal(b1-4)[Fuc(a1-3)]GlcNAc(b1-3)Gal(b1-4)[Fuc(a1-3)]GlcNAc(b1-3)Gal(b1-4)[Fuc(a1-3)]GlcNAc
Method in brief: as §1

[13] = target: Fuc(a1-2)Gal(b1-4)[Fuc(a1-3)]GlcNAc(b1-3)GalNAc
Method in brief: as §1

[14] = target: Fuc(a1-2)Gal(b1-4)[Fuc(a1-3)]GlcNAc(b1-3)[Neu5Ac(a2-6)Gal(b1-4)GlcNAc(b1-6)]Gal(b1-4)Glc
Method in brief: as §1

[15] = target: Fuc(a1-2)Gal3S(b1-4)GlcNAc
Method in brief: as §1

[16] = target: Fuc(a1-2)Gal6S(b1-3)GlcNAc
Method in brief: as §1

[17] = target: Fuc(a1-2)Gal6S(b1-3)GlcNAc6S
Method in brief: as §1

[18] = target: Fuc(a1-2)Gal6S(b1-4)Glc
Method in brief: as §1

[19] = target: Fuc(a1-2)Gal6S(b1-4)Glc6S
Method in brief: as §1

[20] = target: Fuc(a1-2)GlcNAc
Method in brief: as §1

[21] = target: Fuc(a1-2)[Gal(a1-3)]Gal
Method in brief: as §1

[22] = target: Fuc(a1-2)[Gal(a1-3)]Gal(b1-3)GalNAc
Method in brief: as §1

[23] = target: Fuc(a1-2)[Gal(a1-3)]Gal(b1-3)GalNAc(b1-3)Gal(a1-4)Gal(b1-4)Glc
Method in brief: as §1

[24] = target: Fuc(a1-2)[Gal(a1-3)]Gal(b1-3)GlcNAc
Method in brief: as §1

[25] = target: Fuc(a1-2)[Gal(a1-3)]Gal(b1-3)GlcNAc(b1-2)Man(a1-3)[Fuc(a1-2)[Gal(a1-3)]Gal(b1-3)GlcNAc(b1-2)Man(a1-6)]Man(b1-4)GlcNAc(b1-4)GlcNAc
Method in brief: as §1

[26] = target: Fuc(a1-2)[Gal(a1-3)]Gal(b1-3)GlcNAc(b1-2)Man(a1-3)[Fuc(a1-2)[Gal(a1-3)]Gal(b1-3)GlcNAc(b1-2)Man(a1-6)]Man(b1-4)GlcNAc(b1-4)[Fuc(a1-6)]GlcNAc
Method in brief: as §1

[27] = target: Fuc(a1-2)[Gal(a1-3)]Gal(b1-3)GlcNAc(b1-3)GalNAc
Method in brief: as §1

[28] = target: Fuc(a1-2)[Gal(a1-3)]Gal(b1-3)GlcNAc(b1-6)GalNAc
Method in brief: as §1

[29] = target: Fuc(a1-2)[Gal(a1-3)]Gal(b1-4)Glc
Method in brief: as §1

[30] = target: Fuc(a1-2)[Gal(a1-3)]Gal(b1-4)GlcNAc
Method in brief: as §1

B1: ECA (Erythrina cristagalli), P83410 (protein)
chain: VETISFSFSEFEPGNDNLTLQGAALITQSGVLQLTKINQNGMPAWDSTGRTLYTKPVHMWDSTTGTVASFETRFSFSIEQPYTRPLPADGLVFFMGPTKSKPAQGYGYLGVFNNSKQDNSYQTLAVEFDTFSNPWDPPQVPHIGIDVNSIRSIKTQPFQLDNGQVANVVIKYDAPSKILHVVLVYPSSGAIYTIAEIVDVKQVLPDWVDVGLSGATGAQRDAAETHDVYSWSFQASLPE
- glycan array binding signal (z-score) [1]: -0.067
- glycan array binding signal (z-score) [2]: 1.34
- glycan array binding signal (z-score) [3]: 0.126
- glycan array binding signal (z-score) [4]: -0.153
- glycan array binding signal (z-score) [5]: -0.465
- glycan array binding signal (z-score) [6]: 1.76
- glycan array binding signal (z-score) [7]: -0.491
- glycan array binding signal (z-score) [8]: -0.238
- glycan array binding signal (z-score) [9]: 1.42
- glycan array binding signal (z-score) [10]: 1
- glycan array binding signal (z-score) [11]: -0.325
- glycan array binding signal (z-score) [12]: -0.194
- glycan array binding signal (z-score) [13]: 0.542
- glycan array binding signal (z-score) [14]: -0.142
- glycan array binding signal (z-score) [15]: 0.094
- glycan array binding signal (z-score) [16]: 1.14
- glycan array binding signal (z-score) [17]: 0.696
- glycan array binding signal (z-score) [18]: -0.096
- glycan array binding signal (z-score) [19]: -0.123
- glycan array binding signal (z-score) [20]: -0.263
- glycan array binding signal (z-score) [21]: -0.15
- glycan array binding signal (z-score) [22]: -0.383
- glycan array binding signal (z-score) [23]: -0.212
- glycan array binding signal (z-score) [24]: 0.236
- glycan array binding signal (z-score) [25]: -0.808
- glycan array binding signal (z-score) [26]: -0.1
- glycan array binding signal (z-score) [27]: -0.481
- glycan array binding signal (z-score) [28]: -0.385
- glycan array binding signal (z-score) [29]: -0.337
- glycan array binding signal (z-score) [30]: -0.298
